The target in the assay is T1, synthetic peptide Pep1S (also: C-terminal Cys coupled to BSA or OVA via sulfo-SMCC, or to biotin).
T1 construct: Loosely based on the tyrosine sulfation site of PSGL-1; In the ELISAs it stood as the BSA conjugate BSA-1S; also called BSA-1S; OVA-1S
T1 peptide: KDKKYATE[sY]EYLDYDFC
In words: confirmatory soluble scFv ELISA on BSA-1S and BSA-1 (FIG. 2B).

Square brackets hold non-standard residues; d marks the D form. Ends that are not written are not given here. sY = N[C@@H](Cc1ccc(OS(=O)(=O)O)cc1)C(=O)O

The record followed here is patent publication US7589182 (LOS ALAMOS NATIONAL SECURITY, dated 2009).

B1: scFv 25 (scFv)
scFv: IVLTQSPSSLSASVGDRVIITCRASQSITKYVNWYQQKPGKAPNLLIYGASSLQSGVPSRFSGSGSGTDFTLTINSLQPEDFATYYCQQTYNVPRTFGQGTKVDIKSGGSTITSYNVYYTKLSSSGT[skipping about 100 residues]STYDSSGYYRHWYFDLWGRGTLVTVSS
notes: Soluble scFv expressed in E. coli; ELISAs used scFv-conditioned media or purified scFv, detected through the sv5 tag; also called clone scFv 25; not shown: sv5 tag of the library construct, used for detection with mouse anti-sv5
As for B1, the binding result is “binds”.
